Results published in PubChem BioAssay AID651820 (National Center for Advancing Translational Sciences (NCATS), 2012).
In all, about 340,000 compounds went through this assay and about 12,000 (3.5%) were called active. Inconclusive results, whose numbers are uncertain, are shown with a selection of clear calls. Calls follow the shape of the dose curve; as a rule, active = well fitted inhibition curve with a large enough effect; inconclusive = small, poorly fitted or top-dose-only effect, or another doubt; inactive = no such curve, though single readings can be large or run the other way. Potencies of inconclusive entries are left out as doubtful fits.

Assay: qHTS Assay for Inhibitors of Hepatitis C Virus (HCV)
Conditions: Huh7.5.1 HCVcc-Cre (HCVcc is cell-culture hepatitis C virus) infection, luciferase reporter, 44 h; activity change, negative = inhibition: at 41.8 µM (top of the series)
Procedure, shortened: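 Seed cells (1,000/well) for 4 h; treat with compound and infect with HCVcc-Cre, moi about 0.5. Incubate 44 h, then detect luciferase activity.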
% is scaled to controls: 0 for no effect and ±100 for the full control effect; potency is read from the fitted curve at half-maximal effect; tags tell the direction and shape of the fitted curve.

Q: With `COc1ccc(NC(=O)C2CCCN(c3nccc(C)n3)C2)cc1` (centres undefined) as the compound, how does the “activity change, negative = inhibition” value read?
A: The value was inactive: -1.14%.

Q: With `O=[N+]([O-])c1ccc(COc2cccc(CNc3ccc(Br)cc3)c2)cc1` as the compound, how does the Potency read?
A: Its Potency is inconclusive [inhibitor, single point].

Q: With `CCn1c(CCCNC(=O)c2ccc(F)cc2)nc2ccccc21` as the compound, how does the “activity change, negative = inhibition” value read?
A: The value was inactive: -1.25%.

Q: With `CC(C)[C@H](CO)Nc1nc(NCc2ccc(S(N)(=O)=O)cc2)c2ncn(C(C)C)c2n1` as the compound, how does the Potency read?
A: The Potency was inconclusive [inhibitor, single point].

Q: For `COc1ccc(-c2csc(N3CCSCC3)n2)cc1`, which Potency is on record?
A: The Potency was inconclusive [inhibitor, single point].

Q: With `CC(=O)C1CCC2(O)C3CCC4=CC(=O)CCC4(C)C3CCC12C` (centres undefined) as the compound, how does the “activity change, negative = inhibition” value read?
A: Its value is inactive: 0.667%.

Q: For `Cc1[nH]n(-c2ccccc2)c(=O)c1/C=N/Nc1nncc(-c2ccccc2)n1`, which Potency is on record?
A: The Potency was active: 0.562 µM.

Q: Which Potency does the source give for `CCC1CCCCN1CCCNC(=O)Cn1cnc2sc(C)c(S(=O)(=O)N3CC(C)CC(C)C3)c2c1=O` (centres undefined) here?
A: Its Potency is inconclusive [inhibitor, single point].

Q: For `CCC(C)(C)NC(=O)C(c1ccccn1)N(C(=O)c1csnn1)C1CCCCC1` (centres undefined), which Potency is on record?
A: Its Potency is inconclusive [inhibitor, single point].

Q: With `CN1CCC(=NNc2ncnc3sc4c(c23)CCCC4)CC1` as the compound, how does the Potency read?
A: The Potency was inconclusive [inhibitor, single point].

Q: For `CCN1CCSc2ccc(C(=O)NCc3ccccc3Br)cc21`, which Potency is on record?
A: Its Potency is inconclusive [inhibitor, partial curve].

Q: For `CCOC(=O)Cc1c(C)nc2c(-c3cccc(Br)c3)c[nH]n2c1=O`, which Potency is on record?
A: Its Potency is inconclusive [inhibitor, single point].

Q: With `Cc1cccc(Cn2cnc3c(sc4nc(C)cc(C)c43)c2=O)c1` as the compound, how does the Potency read?
A: The Potency was inconclusive [inhibitor, partial curve].

Q: With `COc1cc(OC)c(OC)cc1CNC(=O)CCN1C(=O)c2cccc([N+](=O)[O-])c2C1=O` as the compound, how does the “activity change, negative = inhibition” value read?
A: Its value is inactive: -8.9%.

Q: With `NNc1ccc(S(=O)(=O)N2CCCCC2)cn1` as the compound, how does the Potency read?
A: The Potency was inconclusive [inhibitor, single point].

Q: Which Potency does the source give for `O=C(c1ccc2c(c1)OCO2)N(Cc1cccs1)C1(C(=O)NC2CCCCC2)CCCCC1` here?
A: Its Potency is inconclusive [inhibitor, full curve, poor fit].

Q: Which Potency does the source give for `Cc1cccc(CSCc2ccc(C(=O)NC(C)C)o2)c1` here?
A: Its Potency is active: 12.6 µM.

Q: Which “activity change, negative = inhibition” value does the source give for `N/C(=N\OC(=O)C1CCCCC1)c1ccc(Cl)cc1` here?
A: The value was inactive: 24.8%.

Q: With `CC1(C)CC(=O)C=C(c2cccc3c2sc2ccccc23)C1` as the compound, how does the Potency read?
A: The Potency was inconclusive [inhibitor, partial curve].

Q: For `CCOC(=O)c1sc2c(c1C)C(c1cccs1)C1=C(CCCC1=O)N2` (centres undefined), which Potency is on record?
A: The Potency was inconclusive [inhibitor, partial curve].

Q: With `COc1cccc(OCC(O)CNC(=O)c2oc3c(C)c(C)ccc3c2C)c1` (centres undefined) as the compound, how does the Potency read?
A: Its Potency is inconclusive [inhibitor, single point].

Q: For `Cc1ccc(NC(=O)CNc2cccc(S(=O)(=O)N3CCCCC3)c2)cc1F`, which Potency is on record?
A: Its Potency is inconclusive [inhibitor, single point].

Q: Which “activity change, negative = inhibition” value does the source give for `COCc1cc(Sc2ccc(Cl)cc2Cl)nc(-c2ccccc2)n1` here?
A: Its value is inactive: -5.12%.

Q: With `O=C(CCc1ccccc1)NC(c1cccs1)c1cc(Cl)c2cccnc2c1O` (centres undefined) as the compound, how does the Potency read?
A: Its Potency is active: 1 µM.

Q: Which Potency does the source give for `CC(C)Cc1nnc(NC(=O)CCC(=O)N2CCN(Cc3ccc(F)cc3)CC2)s1` here?
A: The Potency was active: 22.4 µM.

Q: Which Potency does the source give for `CC(Sc1nnc(C2CC2)n1C1CC1)C(=O)Nc1ccc(C(N)=O)cc1` (centres undefined) here?
A: Its Potency is inconclusive [inhibitor, single point].

Q: Which Potency does the source give for `COc1cc(OC)cc(-c2c(-c3cccs3)c3cc(-c4ccc5[nH]ccc5c4)ccc3n2C)c1` here?
A: Its Potency is active: 11.2 µM.

Q: For `Cn1c(=O)c2c(nc(NCc3ccc4c(c3)OCO4)n2Cc2ccc(F)cc2)n(C)c1=O`, which Potency is on record?
A: Its Potency is active: 11.2 µM.

Q: Which “activity change, negative = inhibition” value does the source give for `O=C(Cn1c(=O)oc2ccccc21)c1ccccc1` here?
A: Its value is inactive: 8.84%.

Q: For `O=[N+]([O-])c1ccc(/C=N/n2cnc3ccccc32)s1`, which Potency is on record?
A: The Potency was inconclusive [inhibitor, full curve].

Q: For `CSC(=NC#N)N1CCN(C(=NC#N)SC)CC1`, which “activity change, negative = inhibition” value is on record?
A: The value was inactive: -6.82%.

Q: For `CCN1CCN(c2nc(SC)nc3sc4c(c23)CC(C)(C)OC4)CC1`, which “activity change, negative = inhibition” value is on record?
A: The value was inactive: -23.7%.

Q: For `CCOC(=O)c1c(NC(=O)c2ccc(N3C(=O)C4C5C=CC(C5)C4C3=O)cc2)sc2c1CCCC2` (centres undefined), which Potency is on record?
A: The Potency was inconclusive [inhibitor, partial curve, poor fit].

Q: Which “activity change, negative = inhibition” value does the source give for `COc1ccccc1NCC(=O)c1ccc(Cl)cc1` here?
A: Its value is inactive: 22.6%.

Q: For `CC(C)C(=O)Nc1cccc(NC(=O)c2ccc([N+](=O)[O-])cc2Cl)c1`, which Potency is on record?
A: The Potency was inconclusive [inhibitor, single point].

Q: Which “activity change, negative = inhibition” value does the source give for `Cn1c(=O)n(CC(=O)OCc2ccccc2)c(=O)c2c1nc1n2CCCN1C1CCCCC1` here?
A: The value was inactive: 3.54%.

Q: Which Potency does the source give for `CC(C)(O)/C=C/C(=O)[C@](C)(O)C1[C@H](O)C[C@@]2(C)C3CC=C4C(C[C@H](O)[C@@H](O)C4(C)C)[C@]3(C)C(=O)C[C@]12C` (some centres undefined) here?
A: The Potency was inconclusive [inhibitor, full curve].

Q: With `Cc1cc(C(F)F)n2ncc(C(=O)N3CCc4ccccc4C3)c2n1` as the compound, how does the Potency read?
A: Its Potency is inconclusive [inhibitor, single point].

Q: With `CCN1CCN(C(c2ccc(F)cc2)c2nnnn2Cc2ccc3c(c2)OCO3)CC1` (centres undefined) as the compound, how does the Potency read?
A: The Potency was inconclusive [inhibitor, single point].

Q: Which Potency does the source give for `CCOC(=O)C1=C(N)N(c2ccc(C)cc2)C2=C(C(=O)CCC2)C1c1cccs1` (centres undefined) here?
A: Its Potency is inconclusive [inhibitor, single point].

Q: Which Potency does the source give for `CCN(CC(=O)Nc1c(F)cccc1F)C(=O)/C=C/c1cn(Cc2ccccc2)nc1-c1cccnc1` here?
A: Its Potency is inconclusive [inhibitor, single point].

Q: For `CN(C)c1ccc(/C=N/N2C(=S)SC(C)(C)C2N(O)C(=O)Nc2ccc([N+](=O)[O-])cc2)cc1` (centres undefined), which Potency is on record?
A: Its Potency is inconclusive [inhibitor, single point].

Q: Which “activity change, negative = inhibition” value does the source give for `CCC(Oc1ccccc1)C(=O)Nc1cc(C)on1` (centres undefined) here?
A: The value was inactive: -2.94%.

Q: Which Potency does the source give for `COc1ccc(-n2cnc3sc4c(c3c2=O)CCCC4)cc1` here?
A: The Potency was inconclusive [inhibitor, single point].

Q: Which Potency does the source give for `COc1ccc(-c2csc(-c3cccs3)n2)cc1OC` here?
A: Its Potency is inconclusive [inhibitor, single point].

Q: Which Potency does the source give for `CCN1CCN(Cc2cccc(Oc3ccc(Cl)cc3)c2)CC1` here?
A: Its Potency is active: 12.6 µM.

Q: Which Potency does the source give for `CCc1c(C)nc2ncnn2c1N1CCC(C(=O)Nc2cccc(C(C)=O)c2)CC1` here?
A: The Potency was inconclusive [inhibitor, single point].

Q: Which Potency does the source give for `C=C(C)CSc1nc2c(cc1C#N)CCC2` here?
A: The Potency was inconclusive [inhibitor, partial curve].

Q: For `Cc1no[n+]([O-])c1COc1ccccc1/C=N/n1nnnc1N`, which Potency is on record?
A: The Potency was inconclusive [inhibitor, single point].

Q: With `Clc1ccc(CON/C=N/c2ncnc3sccc23)c(Cl)c1` as the compound, how does the Potency read?
A: Its Potency is inconclusive [inhibitor, partial curve].

Q: With `CCOC(=O)CN1CC23C=CC(O2)C(C(=O)Nc2ccc(OCC)cc2)C3C1=O` (centres undefined) as the compound, how does the Potency read?
A: The Potency was “inactive”.

Q: With `COc1cc(Nc2c3c(nc4ccccc24)CCCC3)cc(OC)c1OC` as the compound, how does the “activity change, negative = inhibition” value read?
A: Its value is inactive: -21.3%.

Q: Which activity change, negative = inhibition does the source give for `O=C(COC(=O)/C=C/c1ccccc1)NNC(=O)c1ccc([N+](=O)[O-])cc1` here?
A: The activity change, negative = inhibition was inactive: -9.49% [at 8.37 µM].

Q: Which “activity change, negative = inhibition” value does the source give for `NC(N)=NN=C1CCCCCCCCCCC1` here?
A: The value was inactive: -4.98%.

Q: Which Potency does the source give for `Cc1ccc2c(c1)Oc1ccc(NC(=O)CCl)cc1C(=O)N2` here?
A: Its Potency is inconclusive [inhibitor, partial curve].

Q: Which Potency does the source give for `O=C(Nc1ccc(-c2nc3ccccc3[nH]2)cc1)c1ccc2c(c1)OCO2` here?
A: Its Potency is inconclusive [inhibitor, partial curve, poor fit].

Q: For `Cc1ccc2c(c1)c(=O)c(Br)c(C)n2Cc1ccccc1`, which Potency is on record?
A: The Potency was inconclusive [inhibitor, single point].

Q: With `CCOC(=O)Cn1c(=N)n(CCOc2cccc(C)c2)c2ccccc21` as the compound, how does the Potency read?
A: Its Potency is inconclusive [inhibitor, partial curve].

Q: Which Potency does the source give for `O=C(NCCc1ccc(Cl)cc1)C1CCN(C(=O)c2sccc2-n2cccc2)CC1` here?
A: The Potency was active: 8.91 µM.

Q: With `COc1ccc(OC)c2nc3c(cc12)CCC3` as the compound, how does the Potency read?
A: Its Potency is inconclusive [inhibitor, partial curve].

Q: For `Cc1cc2nc(-c3ccc(SCc4ccc(C(=O)O)cc4)nc3)[nH]c2cc1C`, which Potency is on record?
A: Its Potency is inconclusive [inhibitor, single point].

Q: With `CSc1ccccc1OCc1cc(C(=O)NCCN2CCCc3ccccc32)no1` as the compound, how does the Potency read?
A: The Potency was inconclusive [inhibitor, partial curve].

Q: For `CC1(C)CC(=O)C(=Cc2cn(-c3ccccc3)nc2-c2ccc(Cl)cc2)C(=O)C1`, which Potency is on record?
A: The Potency was inconclusive [inhibitor, partial curve, poor fit].

Q: With `CC1CN(C(=S)SCC(=O)c2ccc(Cl)cc2)CC(C)O1` (centres undefined) as the compound, how does the Potency read?
A: The Potency was inconclusive [inhibitor, partial curve].

Q: With `COc1cn(-c2ccccc2)nc1C(=O)Nc1ccccc1` as the compound, how does the Potency read?
A: The Potency was inconclusive [inhibitor, single point].

Q: For `O=C(Nc1nc(COc2ccccc2)cs1)c1ccccc1F`, which Potency is on record?
A: The Potency was inconclusive [inhibitor, single point].

Q: With `CC(C)Cc1ccc(CN2CCCC(NC(=O)c3ccnn3C)C2)cc1` (centres undefined) as the compound, how does the Potency read?
A: Its Potency is active: 11.2 µM.

Q: With `O=C(Oc1ccc(Oc2ccccc2)cc1)N1CCC(O)CC1` as the compound, how does the Potency read?
A: Its Potency is inconclusive [inhibitor, single point].

Q: Which Potency does the source give for `COc1cccc(NC(=O)N(Cc2cc3cc(C)cc(C)c3[nH]c2=O)CC2COCCO2)c1` (centres undefined) here?
A: The Potency was inconclusive [inhibitor, single point].
